# Results published in the supplement of paper PMC11417369.
# This is one part of the list.
# Test system: PfHDP1 homeodomain (GST-tagged)
# Experiment: gcPBM binding intensity (ln(normalized median fluorescence intensity)); higher = stronger DNA binding
# Procedure, shortened: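 Binding intensity is defined as the maximum Masliner-normalised natural-log median intensity across replicate spots for either probe orientation. It was measured on an Agilent 4 × 180k array of primer-extended double-stranded 36-bp intergenic genomic probes and negative controls, to which GST-tagged P. falciparum DNA-binding domains made in E. coli were applied for 1 h in 1× PBS with 1% milk, 0.2 mg/ml BSA, 0.5% salmon testes DNA and 0.03% Triton X-100. Detection was by Alexa488 anti-GST antibody and scanning at 488 nm.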
row,Sequence,gcPBM binding intensity (ln)
1,AAATAAATATAAATAAATAAATAAATAAATATATAT [CACACA_negctrl_site827],6.28
2,TTGTTCTATATATATGCATGCACGTATGTTAAATTA [TGCATGCA_site659],8.06
3,TATTAATTTTTATACGCATGTGTATAGTAATATATA [TGCATGCA_site1010],6.43
4,TCTCATATATTGAATTGTACATATGTTAAAATATAG [XGTACX_site6764],6.58
5,ATACAAAAGGGGAATACACACACATATATATATATA [CACACA_site8694],9.25
6,AATAAACATAGATGTACACACATATACAGATATATA [CACACA_site5570],6.3
7,TAAAGAATAATACATTCACACAATATTATAAAAATA [CACACA_site5986],6.29
8,TTGTATGAATTTATTTTTATTGATAATTAATATGTA [TGCATGCA_negctrl_site143],6.11
9,GAAATGTCATATAATAGTACACACATGAAAATATAA [XGTACX_site6838],6.69
10,TATGATTAATTACCACAATTGACAAAAAAAAAAAAA [CACACA_negctrl_site336],6.19
11,AAAAATAAAGGATATACACACTAATTCTATAAATAT [CACACA_site7344],6.4
12,TATAAGTATTAATACACACACAAAATAATAAAAAAA [CACACA_site3481],7.14
13,GTCTCGATAATGAAAAGTACAAAATAAAAATAATAA [XGTACX_site6471],6.71
14,AAGAGGTTAATGAAATGTACACATATATATATATAT [XGTACX_site1861],9.26
15,TATAGTTTTGAAAACAAACACACAAAAAAAAAAAAA [CACACA_site1691],6.31
16,TATGTAACCTGTTTTACACACCCCCACCCCCCTCTT [CACACA_site319],7.95
17,TTTTATAAATATTATACATGCATAATGATAAAAAAA [TGCATGCA_site927],6.91
18,TTTTTTTTCTATGTGGTGCACATTATTTTTTTTTTT,9.27
19,ATAATTTCACAAATAGTGCAAAAATTAGTAAGAATA [GTGCAC_site9648],9.31

row,Sequence,gcPBM binding intensity (ln)
1,AAAAAAAACAGACACACACACATACAAAATATATAT [CACACA_site1449],6.88
2,TTTAAATACAGACATACACACATACACAGACATATA [CACACA_site4460],6.99
3,ATATTTTTATGTACTTCAAAAAAAAAGAAAAACAAA [CACACA_negctrl_site970],6.27
4,CTCTATTGTTAAAAGGTGCTTTTATGATTTTATATA [GTGCAC_site9409],6.58
5,TTAATATATTTTAAAAGTACATAATATTATTTTTTA [XGTACX_site3642],6.17
6,AAGAAAAGAACAAGAGCATGCACTTAATAAGAATAA [TGCATGCA_site818],8.75
7,ATATATATATATATATGTACTTATTTATTTATTTAT [XGTACX_site4645],9.36
8,ATATTTTACATATTTGCACACATATATTTATATACA [CACACA_site855],10.7
9,TAATATGTGGACTTTACACACTTGTTTTAAAATTCT [CACACA_site4605],6.13
10,ATATTAAAGATATATACACACATATTTATAAATATA [CACACA_site7127],6.57
11,AAAATTTATGGAAGGTGTACTGTTAATTATGTATAT [XGTACX_site6446],6.58
12,GAAGACAATTATATGTGTACATATATATACATATAT [XGTACX_site4630],6.45
13,AGTAGATATTATTATAGTACTTTTTATTTTATATTT [XGTACX_site1551],6.2
14,GGAATTCATATTAATTGTACATTTAAAGATAGATGA [XGTACX_site3279],6.44
15,ATATGATTAATTAAGTGTACGTATTTATAATTATAA [XGTACX_site5783],6.74
16,ATTACAATTTTAATAGTGCATTTTTATATATTTCTA [GTGCAC_site9918],8.93
17,TTTTTACTATAAGGGGAAAAAAAAAAAAATAATATA [XGTACX_negctrl_site279],5.97
18,CAAGAAAAGAAACACACACACATATATATATATATA [CACACA_site3881],9.23
19,TAAACATATACACGTACATGCAACGGATTTTTTTTT [TGCATGCA_site70],6.63

row,Sequence,gcPBM binding intensity (ln)
1,ATATAACTTTTAAAAGCATGCAAATATTTACTCAAT [TGCATGCA_site396],7.09
2,TATATATATATATGTGCACACATAATAAAAAAAAAA [CACACA_site3830],10.1
3,ATATAAAAATAATAGAGTACAAAAAAAAAATGTATA [XGTACX_site7054],6.7
4,TGTATACATTATTAAGTGCAAGTAGGGAAAAAAAAA,8.27
5,GATGATACGATTATCACACATTTATACTTTCTACAT [CACACA_site5669],6.34
6,TTTATTTATCTTTACGCACACACTTGCATGTACAAA [CACACA_site1118],8.22
7,TACCTACCTTTACGGAGTACACAATAATAGTTATAA [XGTACX_site6593],6.7
8,GAAAAAAATGAAATTAGTACTTATCTTAAATTTTTA [XGTACX_site1018],5.78
9,AAAAATATATAATAAAGTACACATAAATGAATAAAT [XGTACX_site329],6.37
10,TTTTTTTTTTTTTGATGTACAATTAATATTATAAAA [XGTACX_site6969],6.59
11,ATTTCTTTTTTATTGAGTACATATGACCATGTTCAA [XGTACX_site5365],6.86
12,AGTAATAAATAATTTACACACATATTATATCATCAC [CACACA_site1890],6.6
13,CATTTTAAAGAAAATACACACAAAAATAGATATATA [CACACA_site6773],6.73
14,CAACATTTGATAAACACACAGAAGTATAAATATATA [CACACA_site2365],6.69
15,ATCGTTATATAAAAATGTACTTATAAATTGTATACA [XGTACX_site6664],6.58
16,AAAGGAAAAATCCAAGTGCATTATTATTTTCACAAA [GTGCAC_site9995],8.61
17,TGTAAGCACATACAAACACACAACATTATTTTTATC [CACACA_site2186],6.7
18,TAGTATAATATGAACACACACACACGCACAAAAAAA [CACACA_site7035],7.3
19,ACAGTATCTGGTAGCTGTACGAGTCGTAGAGAGTAG [XGTACX_site2041],6.85
